{"source": "PubChem BioAssay (NCATS)", "note": "Several values for one entry are separate records, joined by “and”; a condition that tells them apart may be missing. Equal values may be shown once. Inconclusive results, whose numbers are uncertain, are shown with a selection of clear calls. Where the call is inconclusive, the potency comes from a doubtful curve fit. Activity calls are given as the source filed them. Calls follow the shape of the dose curve; as a rule, active = well fitted curve in the direction sought with a large enough effect; inconclusive = small, poorly fitted or top-dose-only effect, or another doubt; inactive = no such curve, though single readings can be large; an effect the other way counts as inactive or inconclusive. Potency is read from the fitted curve at half-maximal effect; tags tell the direction and shape of the fitted curve."}
{"target": "Rap guanine nucleotide exchange factor 3 (Homo sapiens) (UniProt O95398)", "sequence (O95398 whole entry, looked up)": "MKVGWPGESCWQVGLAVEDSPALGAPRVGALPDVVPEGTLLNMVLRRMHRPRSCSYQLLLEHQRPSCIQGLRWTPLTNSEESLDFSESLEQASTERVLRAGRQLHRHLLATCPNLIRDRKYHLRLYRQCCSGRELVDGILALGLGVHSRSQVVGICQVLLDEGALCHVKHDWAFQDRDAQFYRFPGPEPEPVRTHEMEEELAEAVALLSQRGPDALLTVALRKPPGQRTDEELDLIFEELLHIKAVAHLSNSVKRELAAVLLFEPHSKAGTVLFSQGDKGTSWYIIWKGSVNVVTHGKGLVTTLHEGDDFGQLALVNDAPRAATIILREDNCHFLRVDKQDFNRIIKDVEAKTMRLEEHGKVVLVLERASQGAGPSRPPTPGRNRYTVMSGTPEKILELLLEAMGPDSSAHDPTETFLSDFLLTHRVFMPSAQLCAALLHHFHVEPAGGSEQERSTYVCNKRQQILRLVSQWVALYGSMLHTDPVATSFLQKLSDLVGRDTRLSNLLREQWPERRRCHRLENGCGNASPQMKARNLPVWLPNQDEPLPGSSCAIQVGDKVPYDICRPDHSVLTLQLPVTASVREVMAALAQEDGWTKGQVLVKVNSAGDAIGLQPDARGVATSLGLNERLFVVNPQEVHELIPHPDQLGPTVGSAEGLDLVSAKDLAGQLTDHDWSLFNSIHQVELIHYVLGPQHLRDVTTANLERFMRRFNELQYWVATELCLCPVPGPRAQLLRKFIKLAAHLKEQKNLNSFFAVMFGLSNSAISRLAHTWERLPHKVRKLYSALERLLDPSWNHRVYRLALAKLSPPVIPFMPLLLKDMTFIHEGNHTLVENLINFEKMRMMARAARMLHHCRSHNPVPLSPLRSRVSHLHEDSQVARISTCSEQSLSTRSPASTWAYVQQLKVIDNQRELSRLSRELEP", "experiment": "Confirmatory qHTS for agonist of cAMP-regulated guanine nucleotide exchange factor 3 (EPAC1) (AID 1645881); also: nearly all actives have a fitted effect of over 75% in size", "details": "EPAC1 Rap1B BODIPY-GDP exchange fluorescence; series mostly up to 154 µM"}
{"smiles": "Nc1ccc2cc3ccc(N)cc3nc2c1", "Potency": "active: 17.7 µM"}
{"smiles": "COc1cccc2c1C(=O)c1c(O)c3c(c(O)c1C2=O)C[C@@](O)(C(C)=O)C[C@@H]3O[C@H]1C[C@H](N)[C@H](O)[C@H](C)O1", "Potency": "inconclusive: 44.6 µM [activator, partial curve] and inconclusive: 7.93 µM [activator, partial curve, poor fit] and inconclusive: 89.1 µM [activator, partial curve]"}
{"smiles": "C[n+]1c2cc(N)ccc2cc2ccc(N)cc21", "note": "(tested in a mixture with another compound)", "Potency": "inconclusive: 2.51 µM [activator, full curve, poor fit]"}
{"smiles": "CC[C@@]1(O)C(=O)OCc2c1cc1n(c2=O)Cc2cc3c(CN(C)C)c(O)ccc3nc2-1", "Potency": "inconclusive: 79.3 µM [activator, partial curve]"}
{"target": "Rap guanine nucleotide exchange factor 4 (Homo sapiens) (UniProt Q8WZA2)", "sequence (Q8WZA2 whole entry, looked up)": "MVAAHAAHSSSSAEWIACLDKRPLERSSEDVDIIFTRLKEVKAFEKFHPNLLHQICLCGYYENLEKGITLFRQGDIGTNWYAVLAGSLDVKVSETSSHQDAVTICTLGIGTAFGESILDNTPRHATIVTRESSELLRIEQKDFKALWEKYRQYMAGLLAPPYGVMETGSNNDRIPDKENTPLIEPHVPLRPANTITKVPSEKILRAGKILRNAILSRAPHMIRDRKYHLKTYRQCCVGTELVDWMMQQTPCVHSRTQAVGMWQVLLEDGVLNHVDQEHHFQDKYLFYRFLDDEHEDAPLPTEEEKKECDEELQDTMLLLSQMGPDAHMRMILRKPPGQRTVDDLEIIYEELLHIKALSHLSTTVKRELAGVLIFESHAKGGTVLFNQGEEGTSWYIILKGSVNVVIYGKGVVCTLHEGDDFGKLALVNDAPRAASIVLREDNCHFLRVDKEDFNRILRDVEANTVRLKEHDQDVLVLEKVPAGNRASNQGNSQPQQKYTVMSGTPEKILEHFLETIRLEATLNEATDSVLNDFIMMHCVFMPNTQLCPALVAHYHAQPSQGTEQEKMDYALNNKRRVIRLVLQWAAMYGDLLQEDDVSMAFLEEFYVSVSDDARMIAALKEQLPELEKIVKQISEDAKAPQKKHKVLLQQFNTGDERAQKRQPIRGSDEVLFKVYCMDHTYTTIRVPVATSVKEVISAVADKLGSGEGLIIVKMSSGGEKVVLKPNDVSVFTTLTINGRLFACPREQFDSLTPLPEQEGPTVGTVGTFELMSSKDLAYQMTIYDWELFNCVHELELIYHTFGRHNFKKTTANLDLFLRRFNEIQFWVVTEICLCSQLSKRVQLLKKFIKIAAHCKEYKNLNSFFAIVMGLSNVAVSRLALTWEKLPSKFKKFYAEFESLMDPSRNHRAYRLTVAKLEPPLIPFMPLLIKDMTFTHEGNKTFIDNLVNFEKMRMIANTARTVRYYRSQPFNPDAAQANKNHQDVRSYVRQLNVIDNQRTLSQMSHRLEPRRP", "experiment": "Confirmatory qHTS for agonist of cAMP-regulated guanine nucleotide exchange factor 4 (EPAC2) (AID 1645884);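 also: nucleotide exchange releases bodipy-GDP from Rap1 and this lowers its fluorescence; nearly all actives have a fitted effect of over 65% in size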", "details": "EPAC2 GEF activity, Rap1B-BODIPY-GDP fluorescence"}
{"smiles": "Nc1ccc2cc3ccc(N)cc3nc2c1", "Potency": "active: 22.3 µM"}
{"smiles": "COc1cccc2c1C(=O)c1c(O)c3c(c(O)c1C2=O)C[C@@](O)(C(C)=O)C[C@@H]3O[C@H]1C[C@H](N)[C@H](O)[C@H](C)O1", "Potency": "inconclusive: 50 µM [activator, partial curve, poor fit] and inconclusive: 7.08 µM [activator, partial curve, poor fit]"}
{"smiles": "C[n+]1c2cc(N)ccc2cc2ccc(N)cc21", "note": "(tested in a mixture with another compound)", "Potency": "inconclusive: 0.889 µM [activator, full curve, poor fit]"}
{"test_system": "not listed separately", "experiment": "NCATS anti-infectives library activity on HEK293 viability as a counter-qHTS vs the C. elegans viability qHTS (AID 1745854)", "details": "HEK293 viability counter-screen; series mostly up to 41.8 µM", "how_it_was_run": "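Compounds were acoustically plated (several concentrations, 1:5, final up to 41.7 uM), then 1500 HEK293 cells added per well and incubated 24 hr at 37C, 5% CO2. CellTiter-Glo was added and luminescence read after 10 min.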"}
{"smiles": "COc1cccc2c1C(=O)c1c(O)c3c(c(O)c1C2=O)C[C@@](O)(C(C)=O)C[C@@H]3O[C@H]1C[C@H](N)[C@H](O)[C@H](C)O1", "Potency": "active: 5.62 µM"}
{"smiles": "CCCCCCCCCCCCCCCC[n+]1ccccc1", "Potency": "active: 11.2 µM"}
{"smiles": "NC(=NCCCCCCN=C(N)/N=C(\\N)Nc1ccc(Cl)cc1)/N=C(\\N)Nc1ccc(Cl)cc1", "Potency": "inconclusive: 14.1 µM [cytotoxic, single point]"}
{"smiles": "COc1cccc2c1C(=O)c1c(O)c3c(c(O)c1C2=O)C[C@@](O)(C(=O)CO)C[C@@H]3O[C@H]1C[C@H](N)[C@H](O)[C@H](C)O1", "Potency": "inconclusive: 31.6 µM [cytotoxic, single point]"}
